Measured values as given in the supplement of paper PMC11417369.
The list shows a part of the results.

Test system: PF3D7_0420300 AP2 domain 1 (GST-tagged)
Assay: gcPBM binding intensity (ln(normalized median fluorescence intensity)); higher = stronger DNA binding
In short: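 The highest Masliner-normalised natural-log median intensity across replicate spots of either probe orientation is reported as binding intensity. GST-tagged P. falciparum DNA-binding domains expressed in E. coli were applied for 1 h to an Agilent 4 × 180k array of primer-extended double-stranded 36-bp intergenic genomic probes plus negative controls, and bound protein was detected with Alexa488 anti-GST antibody and scanned at 488 nm.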

| Sequence | gcPBM binding intensity (ln) |
| --- | --- |
| GTGTACAGACACAAAATATATACATATATATATATA [CACACA_negctrl_site1796] | 9.15 |
| TATTTTCATAATAAAAAAAAATAATTTAAAAAATAT [CACACA_negctrl_site748] | 8.66 |
| ATTATTTTCTCATAGAGTACAAATGTTGTTGTTGTC [XGTACX_site1062] | 9.15 |
| TGTGCACATAATTAGTGTACATTTTTTATTTAGACA [XGTACX_site317] | 8.98 |
| AATGGCAAAATAGGCACACACACATATACATATATA [CACACA_site1058] | 10.1 |
| AATTATATTTGAAATACACACATAAAAATCATATAG [CACACA_site3468] | 9.64 |
| AGATTTAAATATCATACACACTTTATATATAATACA [CACACA_site4688] | 9.35 |
| ATTAGAGAATCGTAACCCAAATGAACATACTTAAAT [GTGCAC_negctrl_site363] | 9.43 |
| AAAAAAAAAAAAAATACACACATATAAATATAAATA [CACACA_site6189] | 9.73 |
| CTTATTGATTTAAAAAGTACATATATGTATATACAC [XGTACX_site4072] | 9.15 |
| GAGCGTAATCTATTTGCACACTTATTTGTTCTTAAA [CACACA_site673] | 9.48 |
| GTGTATAATATAGGATGTACAATAAAACACCGATTG [XGTACX_site7429] | 9.43 |
| TTGTTTATCAACAGCACACACAACAACAACAACAAC [CACACA_site458] | 9.49 |
| ATAAAAACATAAACAAATCAAAAAAAAAAAAAAAAA [CACACA_negctrl_site13] | 8.86 |
| AAATAATGAAACAAAGTGCATAAAAATATACATATA [GTGCAC_site9467] | 9.47 |
| ATGGATTATACGTGCACACATATATACCAATAAATA [CACACA_site4524] | 9.43 |
| CATTAAAATATGAGATGTACACAATATCTATTATAT [XGTACX_site4979] | 9.3 |
| ATTTAAATATCTTCTTTTTTTTTTTTTTTTGAAATT [CACACA_negctrl_site1074] | 8.94 |
| TTTCACCATATAAACGTGCACACTACAAAAATATAT [CACACA_site2547] | 9.36 |
| AAATAATAAATTATAACACACATATATATATATATA [CACACA_site4045] | 9.2 |
| ATAATACAATTTATAACACACACACTATAATACATA [CACACA_site8338] | 9.97 |
| TTCATGCTTATATGTGCACACACAAAAGAAAAGAAA [CACACA_site1656] | 9.6 |

| Sequence | gcPBM binding intensity (ln) |
| --- | --- |
| GGAAAGACAGTTCACAGTACCCAGTAACTCTACGGA [XGTACX_site2009] | 9.2 |
| TTATATAGGTCATTCATAAATACAGTTTTTAAAAAA [CACACA_negctrl_site1340] | 8.84 |
| AATTCATTATATATACGTACATATTTCTGTATAAAA [XGTACX_site6371] | 9.24 |
| ATTTATTTCACAAAAACATGCAGTTTGAAATTGCCA [TGCATGCA_site910] | 8.96 |
| GCATAAATTATCATAACATAAATATAAAAATATAAT [GTGCAC_negctrl_site55] | 9.18 |
| GATTATTTTATAAGTACACACATTTATATATAATAA [CACACA_site2573] | 9.44 |
| ATATATATATATATATGTACATATATATTGTTGATC [XGTACX_site8893] | 9.21 |
| ACATATTATTCAAGTGCACACTTTATATTTATGATT [CACACA_site3295] | 9.52 |
| ATTTAATTCGTACATACACACGCACATATATATATA [CACACA_site8415] | 9.72 |
| TACAATAATGATTGTTGTACATTATTGATATTTAAA [XGTACX_site2940] | 9.06 |
| TTTAATTTTTAATCAGTGCAATATTATATAATATAT | 9.08 |
| AAAAAAAAACAGAAAACACACAAATTATCTTAGAAT [CACACA_site309] | 9.61 |
| ATTAATTCGTTTTGTACACACATAATGAATAATTTA [CACACA_site2235] | 9.31 |
| TCATTTTAATTAAAAGTGCAAAAAATAATATAACTA [GTGCAC_site9968] | 9.1 |
| AATAATTCATCATATGCACACACAATACCAAAATGT [CACACA_site7945] | 9.83 |
| TATATGAAATATTATGCACACAATATATAATATGAT [CACACA_site936] | 9.51 |
| CAAAAATAATAGAATACATGCAAAAATAAATGTATA [TGCATGCA_site196] | 9.48 |
| ATAATATATTTAATCATACACACATTTATGTACCTA [CACACA_site1719] | 9.58 |
| AAAAATAAAGGGTGTGCACACAAAAATATATATATA [CACACA_site1727] | 9.94 |
| TTTTTTTTTAAAACATAATAAAAAATAAAACAACCT [GTGCAC_negctrl_site92] | 9.31 |
| ATATATGCATATATATGTACATATATATATATATAT [XGTACX_site7403] | 9.22 |
| AATAAATAAAAAATTACACACATATATATAAATATA [CACACA_site3434] | 9.57 |
